Measurements as given in the supplement of paper PMC3334620.
Whole data set: some 33,000 sequences, median “E-score (-0.5 to 0.5)” near -0.012, cut for the highest 2% near 0.29. The list shows a part of the results.

biological target: T1, Ybr033w (UniProt P38073); experiment: PBM E-score (8-mer binding enrichment) (E-score (-0.5 to 0.5)); higher = stronger / more preferred TF binding; most listed sequences are background and not binding sites; settings: protein concentration: 200 nM; construct: GST-full length
T1 sequence: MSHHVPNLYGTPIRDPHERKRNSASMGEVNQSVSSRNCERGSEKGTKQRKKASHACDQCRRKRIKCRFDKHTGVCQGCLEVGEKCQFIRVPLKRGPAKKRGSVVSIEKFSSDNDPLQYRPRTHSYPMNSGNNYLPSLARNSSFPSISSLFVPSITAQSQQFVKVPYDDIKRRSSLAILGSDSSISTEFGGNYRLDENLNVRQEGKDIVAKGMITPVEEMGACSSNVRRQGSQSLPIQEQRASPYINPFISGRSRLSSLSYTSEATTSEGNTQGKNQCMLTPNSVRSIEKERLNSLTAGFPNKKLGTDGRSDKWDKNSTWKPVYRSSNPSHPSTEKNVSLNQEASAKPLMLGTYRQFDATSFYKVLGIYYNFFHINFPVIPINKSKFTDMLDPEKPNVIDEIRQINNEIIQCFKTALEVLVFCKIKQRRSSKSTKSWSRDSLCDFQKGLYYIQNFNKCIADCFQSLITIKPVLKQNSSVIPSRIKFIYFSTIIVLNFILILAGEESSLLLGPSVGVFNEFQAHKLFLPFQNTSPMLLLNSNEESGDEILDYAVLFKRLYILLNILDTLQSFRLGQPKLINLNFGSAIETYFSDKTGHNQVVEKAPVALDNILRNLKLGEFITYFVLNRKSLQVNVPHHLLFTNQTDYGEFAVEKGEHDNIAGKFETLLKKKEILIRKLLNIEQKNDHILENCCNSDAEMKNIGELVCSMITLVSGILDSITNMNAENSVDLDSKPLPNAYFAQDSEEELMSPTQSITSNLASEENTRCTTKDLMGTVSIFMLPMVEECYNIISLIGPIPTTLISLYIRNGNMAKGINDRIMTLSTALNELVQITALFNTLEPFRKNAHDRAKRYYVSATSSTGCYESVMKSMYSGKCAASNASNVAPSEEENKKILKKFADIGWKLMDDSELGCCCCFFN
Method in brief: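 Universal all-10-mer Agilent arrays, double-stranded by primer extension on fresh or once-stripped slides, were probed with about 100-200 nM GST-tagged yeast transcription factors made by PURExpress. Fluorescent anti-GST detected bound protein, and masliner normalised the scans. E-scores from the Universal PBM Analysis Suite were given to each ungapped eight-base word pooled with its reverse complement.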

Sequence | PBM E-score
CGTTCATC | -0.00051
CCCATAGC | -0.127
ATGACCCA | 0.0427
CTATATTA | 0.284
AGGGGACA | -0.208
ATTGTAGG | 0.189
CCCTGGAG | -0.239
CCAAATTC | 0.111
CCCCCGTA | -0.405
GTCGGGAA | -0.0544
CGGGCAAG | -0.145
TACTTCAA | 0.219
CTACTGAA | 0.0539
CCTACCTC | -0.26
GGCCTCTA | -0.251
TCCATGGA | 0.181
GAGATAGA | 0.0389
ATCAAGTG | -0.142
AAATGCAC | -0.0186
TATGCCCA | -0.0335
TAGTGTAA | 0.184
CCATATTA | 0.146
AACTTCAG | 0.102
AGGAGTTC | -0.145
CGCAAACC | -0.068

Sequence | PBM E-score
GTGATTGA | 0.16
AAGTGTAC | -0.0324
GGTTGAAA | 0.13
CGCGAGAC | -0.082
CCCATGTA | -0.0248
AGGCATGC | -0.0978
AAACCCGA | 0.134
AAGGAAGA | 0.129
ACCTGCTG | 0.135
ACTCGACT | -0.0394
GACTTCTA | -0.0575
AGGCAGAC | -0.106
AGTGAAAT | 0.165
CCTAAGTC | -0.206
CCTGAACA | -0.0549
GAGCCCAC | -0.27
ACGGTGGA | -0.0951
CCTCTAAG | -0.132
CTGGCCTC | -0.228
GGGCGTAA | -0.294
CCCTGAGC | -0.0655
AGCTTATA | -0.00365
ACTTCACC | 0.0864
ACCATCAG | -0.0983
CATTGGAA | 0.192

Sequence | PBM E-score
AATCTCCA | 0.0207
CAAAGTAG | 0.12
CGGGGGAC | -0.322
ACTATAGG | 0.0138
ATACACGC | 0.0245
ATCGGGTG | -0.0659
CTGCCCCA | -0.248
GAAACTAA | 0.135
GCTATGAA | 0.117
GTCCAGTA | 0.0171
ATTGTACG | 0.201
AACACAAT | 0.21
TCCGGTCA | -0.066
AATGTGCT | 0.0632
AGGGCCTA | -0.218
CTGGCATC | -0.206
ACGCTTTC | -0.155
AAGGTATC | -0.125
CTGGCGTA | -0.0739
CTATGGTC | -0.0605
AATCCGCA | 0.119
AATGGCCA | -0.0335
ACCCCGAT | -0.036
AGCTTTCA | 0.0958
AAGTGCTA | 0.0657

Sequence | PBM E-score
GGTTGGAC | -0.056
CGACGGTC | -0.287
CAAACAGC | -0.0984
AGCGTCGA | -0.0109
CACCTTGC | -0.18
AAGGGAGA | -0.166
CAAACAAA | 0.224
TGGCTACA | -0.111
CTCATCAC | -0.088
GATCATGA | 0.178
GCTGCATA | 0.0679
CGCGCAAA | 0.204
AAGGGCCA | -0.246
TCCACTAA | 0.0485
CTGGGTAA | 0.00696
CGCCCGAG | -0.195
ACTGCGTA | -0.0835
ATAACATA | 0.214
ACTCCTAA | 0.0868
ATCTTATA | 0.224
CCCAGATA | -0.166
ATTGACCG | -0.00177
CAACGCGG | -0.235
ACAGCCGC | -0.0825
ACCATTCA | 0.0831

Sequence | PBM E-score
GGTGCGAA | -0.101
TCGACACA | -0.028
ATAGAGTA | 0.108
AAGATAGT | 0.0427
GGTTCAAC | 0.0566
GAACACGA | -0.0138
ACAAGCCG | -0.0137
GGGGCGTA | -0.307
CACTACCG | -0.123
CCGGCTGA | -0.078
ACTTTGTC | 0.167
CCAGCTCA | -0.0739
CCAAGCCA | -0.0691
TCGTACAA | 0.25
AAGAAAAG | 0.149
CACTACTG | 0.013
GAAGGCCA | -0.239
AATAACAA | 0.234
ACCTGTAG | -0.105
CATCCCGG | -0.0873
ATAAGAGG | -0.0593
ACAAGAAG | 0.146
ATGTGCCG | -0.223
GTGGCAGA | -0.252
CGAAATTA | 0.151

Sequence | PBM E-score
CCGCTTAC | -0.0878
GAACATGA | -0.0393
CCCTCGCC | -0.198
CATGCCTA | -0.133
TACAAACA | 0.29
AACCCTGA | -0.00342
TTGCCAAA | 0.0637
CACGCGCG | -0.0876
CTTATGCC | -0.0223
CCGGCACC | -0.177
GCAAGGGC | -0.285
ATCGATTG | 0.199
AACGCCAG | 0.105
GCCTTGTA | -0.0689
CTATCGCA | 0.0795
CGTAGGTA | -0.0615
CCCAATCA | -0.127
ATGTGACA | -0.0588
CGCCAAAG | -0.0413
ATAGATTG | 0.107
GAGCCACA | -0.058
ACGACTGC | -0.132
AAACTCAC | -0.0491
CTGTGCTA | -0.08
TAACGTTA | 0.081

Sequence | PBM E-score
ATTGATCC | 0.466
AGAACTAG | -0.084
TCGCGCGA | -0.0895
AGATCCAA | 0.145
CGAATACC | -0.0362
CAAGTGCG | -0.0668
GGGTCGAA | -0.117
AGATCTCC | -0.121
AGGCCGGG | -0.3
ATACCGGA | 0.055
CGCAGAAG | -0.00752
CGAAACGC | -0.224
GAATGCCA | -0.112
AGTAGCGG | 0.175
ATCCTTTC | 0.0992
ACTGTCGA | -0.149
GACGTCGA | 0.0559
ACAGACAG | 0.134
ACCAGTGG | -0.0801
GGCCTAAA | -0.154
ACAGTGGT | -0.0815
CCGATCTA | -0.108
GGCGGGGA | 0.149
ATATTAAG | 0.285
GCAACGCC | -0.171

Sequence | PBM E-score
AAATGACC | 0.0697
CACTGGTC | -0.167
AACGGCCA | 0.113
AAAACTTT | 0.134
ACACGCGT | 0.133
CGGTTACC | -0.0541
GCGTCAAA | 0.0113
AGTTGCTC | -0.15
AGCCATCC | -0.216
CTGAACAC | 0.0553
GCGTAGGA | -0.0382
CACAGCCA | -0.174
AGCTGGGA | -0.155
GAGTACCC | -0.135
CGCCCAGC | -0.0661
AGGCCGTC | -0.316
CTACCTGC | -0.0433
CACGACCA | -0.0661
ATCCGAGA | 0.115
AGGTATAG | 0.0943
AACCCACT | -0.0101
GGGGGTGA | -0.173
CACCGGGC | -0.258
AGGAGGAT | 0.066
AAGCCTAC | 0.0593

Sequence | PBM E-score
CCAGCGAG | -0.0662
GCTTGTCC | -0.0427
ACCAGCCT | -0.189
ATCAATTC | 0.125
GTTAAAAA | 0.214
CCCGCTTC | -0.221
CTTGGAAA | 0.223
GTTGCGCA | -0.165
TGTCCAAA | 0.0758
ATTCCGTC | 0.106
AAGACCTT | -0.0118
GTGTCCGA | -0.138
CCATGTCA | -0.0626
GGCAGCCC | -0.398
GAAGGCAC | -0.122
AGCAAGCG | -0.144
GGGGACAC | -0.39
CTTAGTGC | 0.0606
CCTTGGAC | -0.181
